According to patent publication US20230302031A1, “Modulators Of Purinergic Receptors and Related Immune Checkpoint For Treating Acute Respiratory Distress Syndrome” (priority 2020, published 2023):

Test system: SARS-CoV-2

Compound	susceptibility of ACE2-A549 cells to SARS-COV-2 infection (48 hours, 5 UI/mL Apyrase, 500 μM Probenecid, FIG. 15)	susceptibility of ACE2-A549 cells to SARS-COV-2 infection
Apyrase	reduce the susceptibility of ACE2-A549 cells to SARS-COV-2 infection	–
CCCN(CCC)S(=O)(=O)c1ccc(C(=O)O)cc1 [Probenecid]	–	reduce the susceptibility of ACE2-A549 cells to SARS-COV-2 infection

Where two headings read alike, the source gives them in different places.
